This is one part of the list.
What follows are sequences tested on PF3D7_0420300 AP2 domain 1 (GST-tagged) (assay: gcPBM binding intensity (ln(normalized median fluorescence intensity)); higher = stronger DNA binding).
Summary of the method: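 For binding intensity, the highest Masliner-normalised natural-log median intensity across replicate spots of either probe orientation was taken. Protein bound to the array was stained with Alexa488 anti-GST antibody and scanned at 488 nm. The protein, GST-tagged P. falciparum DNA-binding domains from E. coli at about 25 μg on average, had been applied for 1 h to an Agilent 4 × 180k array of primer-extended double-stranded 36-bp intergenic genomic probes and negative controls.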

Sequence	gcPBM binding intensity (ln)
ATGTATAAACATATATGTACTTAAATAAAATGTTAA [XGTACX_site4044]	9.11
TAAAAAAACATATATTGTACGGAGATAATAATTTTT [XGTACX_site2946]	9.24
AAAAATAAAAAAATAATAAAATAAAAAATAAAAAAT [TGCATGCA_negctrl_site89]	9.23
TATACTGTCAATTCTACACACCATAGGGGGAGCATA [CACACA_site1875]	9.83
ATTAAAAGAACAATGTAAAAAAAGCAAATTAAAGAT [TGCATGCA_negctrl_site360]	9.55
CACCAATTCATATGCACACACATCTGCATATTATAT [CACACA_site1773]	9.74
TTATTAAATGAAAAATGTACATATAAATGATTATAT [XGTACX_site2788]	9.21
GAAATGTGTAGACACGCACACACAAAAAAATATATA [CACACA_site2912]	9.71
TCTAATAAAATAAATACATGCATACATACATACATA [TGCATGCA_site895]	9.19
AGGATTATATATTAATGTACCCGCGTTAATTTTTTT [XGTACX_site2878]	9.44
AAATAGAGAAATACAAGTACATACTAAACCTATCTA [XGTACX_site1334]	9.48
ACAAAGAAATATAATACACACAAGAATATATTGGAT [CACACA_site3901]	10
TAATATTTATCAAGTCGTACATAAAATGTATAATAA [XGTACX_site1103]	9.06
GTACAATAAGATGTAGCATGCCGTACCTTCACTACG [TGCATGCA_site235]	9.24
CAAATAACAAAATAATGTACATTTATACTTTTTTTT [XGTACX_site943]	9.19
TATACATATTTGTATTGTACATAAACTAAATCTTCA [XGTACX_site610]	9.04
ATACTGTATGAAAGCACACATACTTATTACTAACAT [CACACA_site4164]	9.38
TATCTCTACAAAATTTTATTCATTATTCATGTTATA [XGTACX_negctrl_site452]	9.29
GACCTACAAAAAGGCACACATATACTCATACATACA [CACACA_site5232]	9.46
ACATTTATTTTGAATGGTACACTATTATTATGAAAT [XGTACX_site4384]	9.1
GTGTAATGCTTATCGGTGCATATATATATATATATA	9.36
AAAAAAAAAAAAGGTACTACACACTATTATCAATAG [XGTACX_site161]	9.48
GATAATTTTTGCATATGTACTTAAAAATTAAAAATT [XGTACX_site7037]	8.95

Sequence	gcPBM binding intensity (ln)
TGAACAACTATTACTGCACACATTCTTACACTATAT [CACACA_site4533]	9.76
TTTTTTAAACGTTTAAATAATTAAATATAAATAAAT [CACACA_negctrl_site1567]	8.81
AAAAAAGAAACAATCGCATGCAATGTTAATGTACAT [TGCATGCA_site395]	9.64
TACGCAAAATAAAATCAAAATATAAGGAAAAAAAAA [TGCATGCA_negctrl_site578]	9.12
AGGTGTCATATATGCACACAAAAGTAACACGCACCT [CACACA_site472]	9.61
ATATTTTAATTATAAAGTACATAAAAATATATAAAC [XGTACX_site6705]	9.36
ATATAGTAAAGTTATACACACATGAATTTTCCCATA [CACACA_site7457]	9.48
TTTTTTATTGTGATACGTATATTATTTTATGATAAA [CACACA_negctrl_site1591]	9.22
TAAAAATGTAAACACACACACATAAATATATTTTAT [CACACA_site5397]	10
ATTAAAAAATCCATAGTGCACTACGATAGGTTCCGA [GTGCAC_site9463]	9.39
AAAGATGGAGTGATATGTACTGATATATTATTATAT [XGTACX_site6500]	9.34
AAGCATAAAGTATATAGTACATATATATATATATAT [XGTACX_site2945]	9.15
TTTGTTGTTGTGAAACGTACTCATAGGATGTTGTAT [XGTACX_site5716]	9.15
ATATTTTCAATGTTCACACATACACAAAAAAAAAAA [CACACA_site6077]	9.13
CTTTTGCCCAAAAAGGTACACACCACAATGTACATA [CACACA_site809]	9.23
GTTAATATACATAAACGTACAGAATTATTATGAGTT [XGTACX_site5185]	9.13
TAAATAATCGCATAATGTACATATAATTTTTTTTTT [XGTACX_site4880]	9.09
AAAATTTTTTTTATTTGTACACAATTCGATACATAA [XGTACX_site4804]	9.06
GCTTGGATATATTAATGTACTTATATATTATGTTGT [XGTACX_site3768]	9.66
CCAATTCAAATATGCACACAAATTTGAAAACGATTA [CACACA_site3607]	9.29
ATAAATAAATTTATACGTACACATAATATATATATA [XGTACX_site4634]	9.33
AAAAATAAAATGATGGTGCACATAAAGTATGGTTAC	9.86
ATTGAAAATTATTTACCTTCTTTGAAAGAACAAATG [CACACA_negctrl_site1736]	8.83

Sequence	gcPBM binding intensity (ln)
AATCCACAAAGACACACACACACATATATATATATA [CACACA_site1269]	10
TAATTAATATATTTTTGTACTTATATATTTGCGTAT [XGTACX_site340]	9.27
AAAATTCTTCGGGGGAGTACAAGGATATTCTACGTT [XGTACX_site3974]	9.53
TTATAATATATATGTGGTACTTATTTATTTATTTAT [XGTACX_site7572]	9.4
ATTTTTGATTTTAAAAGTACATAAGTATACTATTTA [XGTACX_site7162]	8.99
TTTTGTAATTTTGTATGTACACATTAAAGTAATATG [XGTACX_site2401]	9.13
GTAAAAATTTCATATTCACACACAAAAAAAAAAAAT [CACACA_site8457]	9.87
TTACTAAACTTATATGTACACACATATAACATTAAT [CACACA_site8710]	9.47
TAAAAAAAAAAAAAAAGTACCCATACTATATTACAT [XGTACX_site946]	9.25
AGTAGTCTGGAGAAGAGTACATAGTATCTGATAACC [XGTACX_site2044]	9.39
AAGAATTTTACAAAATGTACTTATGTTTTGTTTTAC [XGTACX_site5632]	9.25
ATCTTTCGTACATGTACACACAGAAAAAAAAAAAAA [CACACA_site2502]	9.35
GTTCCCATAAATAAATGTACATATTATATATATATA [XGTACX_site3242]	9.43
GTGTAATCATATAAGGGTACAAAAAATGTCTAACAA [XGTACX_site8122]	9.41
TTTCATTTCACAGACACACACACACCCTATATTTCC [CACACA_site3906]	10.2
ATATATATATATGTTAGTACTTATATTGAAATGGTA [XGTACX_site1406]	9.14
ATAAATAAAACAAAATGTACAAATATTCATATATTC [XGTACX_site1307]	9.41
ATTTTTTTTTTTTTTGAACACACATTATTAATTTTT [CACACA_site7990]	9.52
ATATATTTTATATAGTGTACTTTAATTTTTTTTTTT [XGTACX_site5550]	9.11
TTATTTACCTATTATAGTACATATAATTAATATAAT [XGTACX_site5724]	9.07
TACATATAAATAATAACACACACCTAGGTACATGGA [CACACA_site838]	9.78
TTTAAAAAAAATATGTGTACTTAATATTTTCATATA [XGTACX_site7421]	9.02
CATACACAGAAACACACACACATATATATATATATA [CACACA_site4519]	9.79

Sequence	gcPBM binding intensity (ln)
ATTCATATCTACTTCACACACATTTGATCATTCAAA [CACACA_site7207]	9.69
ATGAAACAGTAACATTGTACTTTTACAAAAAAATAA [XGTACX_site806]	9.09
ATAGTATTTTTTATTACACACAAATAAAAAGAAAAA [CACACA_site2087]	9.38
AAAATCTATATTAACACACACACAAAAAAAAAAAAA [CACACA_site6738]	9.95
TTTAAATATATTAATACACACACGATATGTACAAAA [CACACA_site539]	9.58
AAAAAATTTTGAAATTGTACATATATAAAAAATATA [XGTACX_site2629]	8.96
GAATAAATTGTATTGTGTACATATAAAAGCATCTAA [XGTACX_site8271]	9.29
TTTCTATAATATTCTACACACCAACAACAAACATAT [CACACA_site6409]	9.64
TATAAATATACAAAGGTGCATAAAAAGTTATGTTTT [GTGCAC_site9832]	9.36
GAATCACTAATTTTTTTACACACCACAATTTAATTT [CACACA_site8311]	9.61
TTTCGAATTAAAGCATGTGAAAATTTTCAAAAAATA [XGTACX_negctrl_site577]	8.97
ATAATAATATAATATTCACACAATTGAAATAGTGTA [CACACA_site6083]	9.18
ACAAAACATAATTGTTGTACAAAAAGAATTATATAT [XGTACX_site8422]	9.39
AAATAAAAATTACAAGCATGCATTTTCCTATTTGCA [TGCATGCA_site861]	9.07
GTGTAAAAATTAAAGTGTACACATATATATATATAT [XGTACX_site2251]	9.35
TGGATGAGGACATACACACACACATAAGTTGATACA [CACACA_site3423]	9.98
TTATATTTTAAGAAATGTACATGATATAATTATCAA [XGTACX_site8693]	8.97
AATGAAAAGGAACATACACACCCCATATAAATATAT [CACACA_site7588]	9.8
TATTTCTTATGAAGGACATGCAATATTATTTATCTC [TGCATGCA_site683]	9.04
TTTTTTTTAATTTTCTGTACAAATTTATATATACTA [XGTACX_site4251]	9.25

From the supplement of paper PMC11417369
